Hit rate of the full screen: of about 310,000 compounds, about 2,200 (0.71%) showed an effect of 50% or more. Effects have a minus sign here. This is one part of the list.
Molecular target: human ether-à-go-go-related gene (hERG) potassium channel (human, UniProt Q12809)
Assay: primary screen, population patch clamp on CHO cells stably expressing hERG

human ether-à-go-go-related gene (hERG) potassium channel, sequence (Q12809 whole entry, looked up): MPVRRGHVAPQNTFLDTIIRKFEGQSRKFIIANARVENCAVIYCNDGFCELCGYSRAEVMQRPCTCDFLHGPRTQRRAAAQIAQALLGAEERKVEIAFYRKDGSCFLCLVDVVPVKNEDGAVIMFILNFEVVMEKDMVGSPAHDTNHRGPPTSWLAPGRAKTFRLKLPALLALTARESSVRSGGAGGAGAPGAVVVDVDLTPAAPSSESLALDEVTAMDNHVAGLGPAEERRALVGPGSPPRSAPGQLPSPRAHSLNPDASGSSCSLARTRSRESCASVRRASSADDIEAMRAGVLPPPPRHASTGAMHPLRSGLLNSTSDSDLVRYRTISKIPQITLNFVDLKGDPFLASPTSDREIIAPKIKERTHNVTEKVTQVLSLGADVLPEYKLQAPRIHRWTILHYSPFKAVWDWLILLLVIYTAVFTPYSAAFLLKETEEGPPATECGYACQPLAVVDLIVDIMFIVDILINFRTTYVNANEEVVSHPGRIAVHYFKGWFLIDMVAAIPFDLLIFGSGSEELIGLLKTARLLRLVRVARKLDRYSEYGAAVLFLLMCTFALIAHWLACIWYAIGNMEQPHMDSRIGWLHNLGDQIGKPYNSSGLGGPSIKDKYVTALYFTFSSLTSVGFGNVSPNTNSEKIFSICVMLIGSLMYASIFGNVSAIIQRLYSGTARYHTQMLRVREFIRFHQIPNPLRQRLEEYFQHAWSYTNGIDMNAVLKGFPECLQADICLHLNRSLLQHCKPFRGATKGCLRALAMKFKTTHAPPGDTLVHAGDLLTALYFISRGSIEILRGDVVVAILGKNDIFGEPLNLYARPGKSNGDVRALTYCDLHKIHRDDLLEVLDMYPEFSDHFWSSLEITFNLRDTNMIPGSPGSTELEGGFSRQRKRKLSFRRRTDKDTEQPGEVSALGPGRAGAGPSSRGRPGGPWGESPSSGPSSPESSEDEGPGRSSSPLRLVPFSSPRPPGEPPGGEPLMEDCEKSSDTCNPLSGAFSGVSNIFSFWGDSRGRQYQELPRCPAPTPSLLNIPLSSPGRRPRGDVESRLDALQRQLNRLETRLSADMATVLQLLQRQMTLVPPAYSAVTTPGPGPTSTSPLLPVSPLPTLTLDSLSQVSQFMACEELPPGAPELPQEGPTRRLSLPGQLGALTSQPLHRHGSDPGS

| Structure (SMILES) | hERG current change (%, negative = inhibition) at 1uM |
| --- | --- |
| Cc1cc(C)c2nc(SCCc3ccccc3)nc(C)c2c1 | -8.27% |
| CCOc1ccccc1NC(=O)N1CCC(NC(=O)c2cccc(C)c2)CC1 | 12.5% |
| COc1ccc([C@H]2CC(=O)C=C(c3ccc4ccn(C)c4c3)C2)cc1 | 10.6% |
| O=C(COC(=O)COc1ccccc1Cc1ccccc1)Nc1cccnc1Cl | 8.3% |
| Cc1nnc(SCC(=O)NNC(=O)c2ccccc2)n1N | 17.1% |
| Cc1cccc(OCc2nnc(N)s2)c1C | 11% |
| CCC(=O)c1cn(CC(=O)NCC2CCCO2)c2ccccc12 (stereo not shown) | 10.1% |
| Cc1cc(NC(=O)CCS(=O)(=O)c2nc(-c3ccccc3)cc(C(F)(F)F)n2)no1 | -0.0403% |
| CCOC(=O)N1CCN(C(=O)C2CC(c3ccc(F)cc3)=NO2)CC1 (stereo not shown) | -15.2% |
| CCN(c1ccccc1)S(=O)(=O)c1ccc(C(=O)Nc2ncccc2O)cc1 | 4.33% |
| COc1ccc(NC(=O)CN2C3CCC2CC(O)(c2cccnc2)C3)cc1OC (stereo not shown) | 5.42% |
| Cc1cc(=O)oc2cc(OCC(=O)N3CCCC(C)C3)ccc12 (stereo not shown) | -8.52% |
| CC(C)c1ccc(NC(=O)CSc2nc(-c3ccccc3F)nc3nc[nH]c23)cc1 | 1.94% |
| COc1cc2ccccc2cc1C(=O)Nc1ccc(CN2CCOCC2)cc1 | 12.7% |
| CCC(C)C1N=C(c2ccccc2)c2cc(Cl)ccc2N(CC(=O)NCc2ccco2)C1=O (stereo not shown) | 6.48% |
| CCN(CC)S(=O)(=O)c1ccc(Cl)c(C(=O)Oc2cccc(-c3cnc4ccccc4n3)c2)c1 | 9.54% |
| Cc1cc2c3c(c1)C1(C(=O)N3C(C)(C)CC2C)C(C#N)=C(N)Oc2n[nH]c(C)c21 (stereo not shown) | 10.5% |
| Cc1cccc(N/C(N)=N/c2nc(C(F)(F)F)cc(=O)[nH]2)c1C | 11.5% |
| O=C(Nc1ccc(N2CCCCC2)cc1)C1CCCN1S(=O)(=O)c1ccc(F)cc1 (stereo not shown) | 7.86% |
| CSCC(C)N1CCC(n2nccc2NC(=O)c2ccc3c(c2)OCO3)CC1 (stereo not shown) | 9.41% |
| CCOC(=O)N1CCN(C2CC(=O)N(c3ccc(C)cc3)C2=O)CC1 (stereo not shown) | 12.6% |
| Cc1ccc2nc(Nc3ccccc3)c(C=O)c(=O)n2c1 | 9.96% |
| O=C(CN(Cc1ccccc1Cl)C(=O)c1ccc(CN2CCOCC2)o1)NCC1CCCO1 (stereo not shown) | 15.2% |
| N#CCC(=O)Nc1ccc(C(=O)OCC(=O)Nc2ccc3ccccc3c2)cc1 | 6.67% |
| O=C(NC1CCN(C(=O)NCc2ccccc2)CC1)c1ccccc1 | 18.5% |
| Nc1ccc2c(c1)C(=O)C(=O)c1ccccc1-2 | 5.93% |
| O=C(c1ccco1)N1CCN(Cc2csc(-c3ccccc3Cl)n2)CC1 | -4.33% |
| Cc1ccc(NC(=O)CSc2nnc(C(F)(F)F)n2C)cc1[N+](=O)[O-] | -6.8% |

| Structure (SMILES) | hERG current change (%, negative = inhibition) at 1uM |
| --- | --- |
| Cc1cccc(Nc2ncccc2C(=O)O)c1C | 18.5% |
| c1ccc(N2CCN(c3ccccc3)C2c2cccnc2)cc1 | 7.09% |
| CCC(=O)c1ccc(N2CCOCC2)c(F)c1 | 4.91% |
| CC(C)NC(=O)CSCc1c(F)cccc1Cl | 15.1% |
| O=C(NCc1ccc(Cl)cc1)C1CCN(S(=O)(=O)c2cc([N+](=O)[O-])ccc2Cl)CC1 | -27% |
| Cn1c(SCC(N)=O)nnc1-c1ccc(C(C)(C)C)cc1 | 16.5% |
| Cc1cc(SCc2cc(=O)n3ccsc3n2)nc2ccccc12 | -0.661% |
| Cc1ccc(Cn2c(SC3CCOC3=O)nc3ccccc3c2=O)cc1 (stereo not shown) | -6.65% |
| O=C(CN1CCN(c2ccc(F)cc2)CC1)Nc1ccccc1[N+](=O)[O-] | 2.79% |
| CCOCCCNC(=O)c1cc(-c2cccnc2)nc2ccc(S(=O)(=O)N3CCC(C)CC3)cc12 | 20.5% |
| O=C(Nc1ccc(O)cc1)/C(=C\c1ccncc1)NC(=O)c1ccccc1 | 12.9% |
| CCN(CC)S(=O)(=O)c1cccc(NC(=O)C(=O)c2c(-c3ccccc3)cc3ccccn23)c1 | 10.5% |
| COc1ccc(N2CCN(C(=O)c3nc4nc(C)cc(C)n4n3)CC2)cc1 | 7.39% |
| C=CCNS(=O)(=O)c1cccc2cc(C(=O)O)c(O)cc12 | 13.9% |
| Cc1ccccc1C(=O)OC1OC(=O)C(Cl)=C1Nc1ccc(C(=O)O)cc1 (stereo not shown) | 15.2% |
| O=C(O)Cc1ccc(NC(=S)Nc2cccc(Cl)c2Cl)cc1 | 14.2% |
| Cc1c(Cl)cccc1NC(=S)N1CCCN(Cc2ccc(F)cc2)C1 | 7.8% |
| O=C(NC1CCS(=O)(=O)C1)N1CCCCC1 (stereo not shown) | 10.6% |
| Cc1ccccc1C(=O)N/C(=C/c1ccc(-c2cccnc2Cl)o1)C(=O)NCCCN1CCN(C)CC1 | 12.3% |
| CC(O)c1cc2c(cc1NC(=O)c1cnn3c1NC(c1ccco1)CC3C(F)(F)F)OCO2 (stereo not shown) | 13.7% |
| CC(C)CCN1C(=O)c2ccc(C(=O)Nc3cc(C(=O)O)cc(C(=O)O)c3)cc2C1=O | -1.38% |
| CCCCC(=O)Nc1cccc(-c2csc(-c3ccccc3)n2)c1 | 5.43% |
| COc1ccc(C)cc1N(C(=O)c1ccc(C#N)cc1)C1=NC(C)(C)CS1 | 10.5% |
| CC(C)Cn1c(SCC(=O)Nc2cccc(S(N)(=O)=O)c2)nc2ccccc2c1=O | 12.8% |
| CCOC(=O)c1sc(Nc2ccc(OCC)cc2)nc1C | 9.2% |
| COc1ccc(NS(=O)(=O)c2cccc(C(=O)N3CCCCCCC3)c2)cc1 | 8.97% |
| Cc1nc(-c2cccs2)sc1C(=O)O | 11.5% |

From PMC4336329 (PLoS ONE, 2015)
